Measurements from the supplement of paper PMC11417369.
Some of the results follow.

test system: PfHDP1 homeodomain (GST-tagged); experiment: gcPBM binding intensity (ln(normalized median fluorescence intensity)); higher = stronger DNA binding
Procedure, shortened: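 For binding intensity, the highest Masliner-normalised natural-log median intensity across replicate spots of either probe orientation was taken. Protein bound to the array was stained with Alexa488 anti-GST antibody and scanned at 488 nm. The protein, GST-tagged P. falciparum DNA-binding domains from E. coli at about 25 μg on average, had been applied for 1 h to an Agilent 4 × 180k array of primer-extended double-stranded 36-bp intergenic genomic probes and negative controls.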

Sequence | gcPBM binding intensity (ln)
TTTCACCATATAAACGTGCACACTACAAAAATATAT [CACACA_site2547] | 9.45
GATTATTTTATAAGTACACACATTTATATATAATAA [CACACA_site2573] | 6.51
GCATAAATTATCATAACATAAATATAAAAATATAAT [GTGCAC_negctrl_site55] | 6.31
AAAAAAAAAAGACACACACACACATAAATATAAATA [CACACA_site6215] | 6.87
ATTTATTTCACAAAAACATGCAGTTTGAAATTGCCA [TGCATGCA_site910] | 6.15
AATTCATTATATATACGTACATATTTCTGTATAAAA [XGTACX_site6371] | 6.39
TTATATAGGTCATTCATAAATACAGTTTTTAAAAAA [CACACA_negctrl_site1340] | 6.49
TGTGCACATAATTAGTGTACATTTTTTATTTAGACA [XGTACX_site317] | 10.1
AATGGCAAAATAGGCACACACACATATACATATATA [CACACA_site1058] | 6.85
AAAAAAAAAAAAAATACACACATATAAATATAAATA [CACACA_site6189] | 6.43
CTTATTGATTTAAAAAGTACATATATGTATATACAC [XGTACX_site4072] | 6.56
AGATTTAAATATCATACACACTTTATATATAATACA [CACACA_site4688] | 6.49
ATTAGAGAATCGTAACCCAAATGAACATACTTAAAT [GTGCAC_negctrl_site363] | 6.38
AATTATATTTGAAATACACACATAAAAATCATATAG [CACACA_site3468] | 6.42
TGTTATATGTTCAAATGTACAAATCATATACATGTT [XGTACX_site3192] | 6.4
GTGTACAGACACAAAATATATACATATATATATATA [CACACA_negctrl_site1796] | 9.2
AATATATAAACCGAACGTACATATTTTTTATACACC [XGTACX_site2121] | 6.59
ATTATTTTCTCATAGAGTACAAATGTTGTTGTTGTC [XGTACX_site1062] | 6.24
TATTTTCATAATAAAAAAAAATAATTTAAAAAATAT [CACACA_negctrl_site748] | 5.77

Sequence | gcPBM binding intensity (ln)
ATGGATTATACGTGCACACATATATACCAATAAATA [CACACA_site4524] | 9.93
CATTAAAATATGAGATGTACACAATATCTATTATAT [XGTACX_site4979] | 6.38
AAATAATGAAACAAAGTGCATAAAAATATACATATA [GTGCAC_site9467] | 8.19
ATTTAAATATCTTCTTTTTTTTTTTTTTTTGAAATT [CACACA_negctrl_site1074] | 5.93
GTGTATAATATAGGATGTACAATAAAACACCGATTG [XGTACX_site7429] | 6.8
GAGCGTAATCTATTTGCACACTTATTTGTTCTTAAA [CACACA_site673] | 10.3
ATAAAAACATAAACAAATCAAAAAAAAAAAAAAAAA [CACACA_negctrl_site13] | 6.1
TTGTTTATCAACAGCACACACAACAACAACAACAAC [CACACA_site458] | 6.75
TCCTTATAAAAATACACACAAACTTTAATTAAAACA [CACACA_site3730] | 6.58
CTATAATAACATAACACACACATGTATTTATAGGTG [CACACA_site6298] | 6.66
ATATATATACAACAAGCATGCAGTAATTTTTTTTTT [TGCATGCA_site728] | 6.88
AAAAAATATATATCACGTGGTAATATATATATATAT [XGTACX_negctrl_site252] | 8.94
AAATTAAATCCGCACGCACACACACCGATTAATAAA [CACACA_site9321] | 7.21
AATATATAAATAGATACACACATACATACATACATA [CACACA_site4301] | 6.71
TACATCTGTATATAAACACACAACAAAAATGCTTAC [CACACA_site3814] | 6.61
ACACCTATAAATTAAGTGCATTTTTTTTGATGTTAT | 9.8
TGTAATACAGAAAAAAGTACTAAAAAGAAAAGGATT [XGTACX_site3176] | 6.95
TATTATATTTATTTATGTACACATATACTTAAATAA [XGTACX_site1355] | 6.42
TTTTTTTTTTTAATATGTACGTAAAATAAGTTTAAA [XGTACX_site6495] | 6.24

Sequence | gcPBM binding intensity (ln)
ACATTCAATCTACTGTGTACATATTAAACTTTGAAA [XGTACX_site2913] | 7.15
ATAATAATATATACATGTACATATATATATATATAT [XGTACX_site3455] | 9.38
AAATATTTATAAATTGCACACAAATAATAACATTAT [CACACA_site8737] | 10.2
TAACATTACTCTTAACTCTTTTGGATACCAACTTAT [XGTACX_negctrl_site82] | 6.58
TATAAATAGATATATACACACTTGTGCAGAATATTA [CACACA_site7112] | 9.73
AGAAGTGTAAAAGTTACACACACAAACTTGTCATTT [CACACA_site4613] | 6.37
CCCAGGTGCTCGTAACGTACTTACATCAAATATTAT [XGTACX_site4617] | 7.43
AGGCGTGAAATATACGTACACACATTATTTATATTT [CACACA_site2558] | 6.56
AAATAAAAAGTAAAGCGTACAAATGATCAAATAATA [XGTACX_site7898] | 7.12
TAATCAACAAAATCTACACACTAAAATGAAATATAA [CACACA_site3749] | 6.47
ATGGAAAAATGTATATATAAAATAAATATATTATAT [CACACA_negctrl_site1712] | 6.23
CATATTAAAAATACATGTACATATATATTTAATATA [XGTACX_site8580] | 6.23
AACCTCAAATACACAAGTACGTATAATAAGGAACAA [XGTACX_site4304] | 6.5
GTTAAAATAATATTATGTACATATATATAAAAATAT [XGTACX_site8512] | 6.56
GTTTGTAAATATTTTACACACATATTTATTTATATA [CACACA_site6632] | 6.37
TATAAATATGTGTTTACACACAATAATGAATTAAAA [CACACA_site6555] | 5.97
AATAAAAAGATATTCTCCTTGTTCCTTTTTTTTAAA [CACACA_negctrl_site1147] | 6.5
TTAATTAAATATTATACACACAAAAAAATAATTTTA [CACACA_site96] | 6.53
